Measurements taken from PubChem BioAssay (NCATS).
Inconclusive means that the source gave no clear call. Such entries were picked first, then a sample of the others. For some assays here: No potency is given beside an inconclusive call; the fits are too rough. Calls of active or inactive are those of the source. Unless noted, calls come from the whole dose curve; as a rule, active = well fitted curve in the direction sought with a large enough effect; inconclusive = small, poorly fitted or top-dose-only effect, or another doubt; inactive = no such curve, though single readings can be large; an effect the other way counts as inactive or inconclusive.

Columns and labels:
Furin (Homo sapiens) = Furin (Homo sapiens) (UniProt P09958); test: Furin counterscreen qHTS for Zika virus inhibitors (AID 1347149); conditions: furin enzymatic counterscreen, fluorogenic substrate; activity change, negative = inhibition: at 114 µM (top of the series); note: nearly all actives have a fitted effect of over 70% in size; note: potency is the fitted concentration of half-maximal effect;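 for activity change, negative = inhibition: purified recombinant full-length human furin enzyme at 5 nM; fluorescence gain from furin cutting a BOC-RVRR-AMC peptide substrate over 15 min; top concentration of the series differs between compounds; plate controls were no-inhibitor control for no effect and no-enzyme control for full effect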
Chain of UniProt P09958 (P09958 whole entry, looked up): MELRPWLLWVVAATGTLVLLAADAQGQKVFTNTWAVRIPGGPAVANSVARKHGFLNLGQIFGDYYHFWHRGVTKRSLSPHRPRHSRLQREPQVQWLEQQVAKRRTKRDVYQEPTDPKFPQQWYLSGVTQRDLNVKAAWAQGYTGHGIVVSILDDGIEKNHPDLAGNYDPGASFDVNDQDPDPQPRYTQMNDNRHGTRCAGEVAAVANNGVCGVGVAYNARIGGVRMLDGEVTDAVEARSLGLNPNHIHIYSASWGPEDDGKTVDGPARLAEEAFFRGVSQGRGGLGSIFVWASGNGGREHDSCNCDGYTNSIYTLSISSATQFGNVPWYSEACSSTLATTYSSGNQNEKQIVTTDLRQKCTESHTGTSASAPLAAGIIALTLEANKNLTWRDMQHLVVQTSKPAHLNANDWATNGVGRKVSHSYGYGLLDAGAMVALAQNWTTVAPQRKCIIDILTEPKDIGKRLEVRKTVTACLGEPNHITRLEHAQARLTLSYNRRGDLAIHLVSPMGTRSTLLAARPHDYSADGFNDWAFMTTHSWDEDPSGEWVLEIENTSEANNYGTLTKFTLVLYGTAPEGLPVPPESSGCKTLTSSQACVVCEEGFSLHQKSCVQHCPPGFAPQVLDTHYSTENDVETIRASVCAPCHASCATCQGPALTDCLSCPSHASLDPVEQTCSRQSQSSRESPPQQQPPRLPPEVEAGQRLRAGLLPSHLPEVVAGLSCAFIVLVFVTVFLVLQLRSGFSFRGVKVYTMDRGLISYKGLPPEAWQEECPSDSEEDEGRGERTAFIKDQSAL
Summary of the method: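 Fluorogenic cleavage of BOC-RVRR-AMC (2 microM final, Km ~15 µM) was monitored (ex 340, em 450 nm) at 37C after 15 min RT preincubation of 5 nM furin with compounds in HEPES pH 7.0 buffer with CaCl2 and Triton X-100. Percent inhibition was fitted to a 4-parameter Hill curve.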

[1] = Tertiary RLuc qRT-PCR qHTS assay for Zika virus inhibitors (AID 1347169); note: nearly all actives have a fitted effect of over 55% in size; note: potency is the fitted concentration of half-maximal effect; for activity change, negative = inhibition: top concentration of the series differs between compounds; % is set by controls: 0 for no effect and ±100 for the full control effect
Summary of the method: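 Vero cells (1,000/well) infected with recombinant ZIKV-RLuc (Cambodian) at MOI 1-2 after compound addition, 48-72 hrs at 37 degrees C. Live-cell Renilla luciferase substrate added; luminescence read after 1-1.5 hrs.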

[2] = qHTS Assay for Lipid Storage Modulators (AID 1519; calls by dose curve; note: % is set by controls: 0 for no effect and ±100 for the full control effect); conditions: Drosophila S3 cells, BODIPY lipid droplet/cell ratio, laser cytometry, cells loaded with oleic acid; activity change, negative = inhibition: at 57.5 µM (top of the series) unless noted
Summary of the method: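 Cells seeded at 5,000 per well were treated with compounds over a concentration series and loaded with oleic acid (400 uM, as added). Lipid droplet fluorescence (488 nm excitation, 500-530 nm channel) was read by laser-scanning cytometry and normalized to 20 uM Triacsin C.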

[3] = target: Phospholipid hydroperoxide glutathione peroxidase GPX4 (Homo sapiens) (UniProt P36969); test: Primary qHTS Assay for Inhibitors of Recombinant Selenoprotein Glutathione Peroxidase 4 (GPX4) (AID 1845192); note: potency is the fitted concentration of half-maximal effect; nearly all actives have a fitted effect of over 65% in size
Chain of UniProt P36969 (P36969 whole entry, looked up): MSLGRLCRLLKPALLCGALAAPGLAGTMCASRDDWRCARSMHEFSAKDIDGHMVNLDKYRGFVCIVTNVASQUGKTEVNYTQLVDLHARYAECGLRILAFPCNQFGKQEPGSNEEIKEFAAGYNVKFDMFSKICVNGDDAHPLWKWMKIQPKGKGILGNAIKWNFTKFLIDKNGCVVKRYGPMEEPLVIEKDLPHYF
Summary of the method: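 GR-coupled readout: 100 nM GR, 1 mM GSH, 0.5 mM NADPH; NADPH fluorescence (ex 340/em 450 nm) read at t=0 and after 15 min RT. GPX4 200 nM, preincubated 30 min with compound; substrate 0.5 mM CHP.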
Tags give direction and shape of the fitted curve.

Row | Compound | Potency (Furin (Homo sapiens)) | Potency [1] | activity change, negative = inhibition [2] | Potency [3]
1 | CCOC(=O)c1ccc(NC(=O)c2nc(SCc3ccccc3F)ncc2Cl)cc1 | inconclusive [inhibitor, single point] | inconclusive [inhibitor, single point] |  | 
2 | Cc1ccc(OCC(=O)Nc2ccccc2C(=O)OCc2cc(=O)n3nc(C4CC4)sc3n2)cc1 | inconclusive [inhibitor, partial curve] | inconclusive [inhibitor, partial curve, poor fit] |  | 
3 | NC(Cc1cc(I)c(Oc2cc(I)c(O)c(I)c2)c(I)c1)C(=O)O (stereo not drawn) | inactive | inactive | inconclusive: 16.5% | inconclusive [inhibitor, single point]
